In all, about 310,000 compounds went through this assay and about 2,200 (0.71%) showed an effect of 50% or more. The effect is printed as a negative number. Some of the results follow.

The record followed here is PMC4336329 (PLoS ONE, 2015).

Sequence of human ether-à-go-go-related gene (hERG) potassium channel (Q12809 whole entry, looked up): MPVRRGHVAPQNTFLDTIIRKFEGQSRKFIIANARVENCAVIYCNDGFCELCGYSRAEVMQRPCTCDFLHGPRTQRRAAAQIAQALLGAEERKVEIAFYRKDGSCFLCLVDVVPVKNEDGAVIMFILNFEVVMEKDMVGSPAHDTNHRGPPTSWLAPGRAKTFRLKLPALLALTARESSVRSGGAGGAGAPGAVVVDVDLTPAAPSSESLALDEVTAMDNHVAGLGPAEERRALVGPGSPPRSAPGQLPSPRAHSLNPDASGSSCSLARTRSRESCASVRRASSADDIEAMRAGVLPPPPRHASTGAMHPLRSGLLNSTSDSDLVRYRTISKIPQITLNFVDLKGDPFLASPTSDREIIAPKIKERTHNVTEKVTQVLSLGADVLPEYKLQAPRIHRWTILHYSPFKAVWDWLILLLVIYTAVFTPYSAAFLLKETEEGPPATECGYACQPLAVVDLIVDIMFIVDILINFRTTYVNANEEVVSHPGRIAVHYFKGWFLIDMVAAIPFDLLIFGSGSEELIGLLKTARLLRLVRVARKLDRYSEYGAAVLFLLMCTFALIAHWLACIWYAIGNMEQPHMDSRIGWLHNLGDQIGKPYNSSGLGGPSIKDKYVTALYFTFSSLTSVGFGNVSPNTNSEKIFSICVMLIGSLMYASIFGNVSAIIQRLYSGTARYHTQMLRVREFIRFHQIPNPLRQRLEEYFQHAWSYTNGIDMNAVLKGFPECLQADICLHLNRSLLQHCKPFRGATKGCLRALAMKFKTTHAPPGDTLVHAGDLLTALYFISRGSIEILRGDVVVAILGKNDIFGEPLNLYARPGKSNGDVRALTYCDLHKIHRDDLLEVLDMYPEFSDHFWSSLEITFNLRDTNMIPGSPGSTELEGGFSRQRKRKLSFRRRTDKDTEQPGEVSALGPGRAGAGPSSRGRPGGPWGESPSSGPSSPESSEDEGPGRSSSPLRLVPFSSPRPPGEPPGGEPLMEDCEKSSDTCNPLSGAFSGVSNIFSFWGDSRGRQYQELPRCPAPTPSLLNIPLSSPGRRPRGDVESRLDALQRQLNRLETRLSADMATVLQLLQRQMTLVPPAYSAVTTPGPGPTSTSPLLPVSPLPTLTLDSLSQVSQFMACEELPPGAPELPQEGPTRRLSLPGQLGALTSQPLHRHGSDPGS

This experiment addresses human ether-à-go-go-related gene (hERG) potassium channel (human, UniProt Q12809). The experiment is described as follows: primary screen, population patch clamp on CHO cells stably expressing hERG.
Consider `O=C(CN(C(=O)CSc1nnc(COc2ccccc2)o1)c1ccc(F)cc1)NC1CCCC1`, for which the “hERG current change (%, negative = inhibition) at 1uM” value is recorded as 13.2%.

For the compound `CCOC(=O)N1CCN(S(=O)(=O)c2ccc(C(=O)Nc3ccc(F)cc3F)cc2)CC1`, the “hERG current change (%, negative = inhibition) at 1uM” value came to 4.52%.

As to `Cc1ccc(S(=O)(=O)N2CCN(C(=O)CNC(=O)c3sc4ccccc4c3Cl)CC2)cc1`, the “hERG current change (%, negative = inhibition) at 1uM” value worked out at 3.85%.

In the case of `CCCCOc1ccc(-c2nnn(CC(=O)NCc3ccco3)n2)cc1`, the “hERG current change (%, negative = inhibition) at 1uM” value was found to be 17.1%.

On to `O=C(Nc1ccn(Cc2ccccc2F)n1)c1ccc(COc2ccccc2Cl)cc1`, for which the “hERG current change (%, negative = inhibition) at 1uM” value is listed as -3.81%.

As for `COc1cc(/C(C)=N/NC(=S)NC(C)C)cc(OC)c1OC`, the “hERG current change (%, negative = inhibition) at 1uM” value is given as 7.45%.

As for `O=C(NCCc1c[nH]c2ccccc12)c1cccnc1`, the “hERG current change (%, negative = inhibition) at 1uM” value is recorded as 18.2%.

In the case of `Cc1ccc(OCC2Cn3c(nc4c3c(=O)[nH]c(=O)n4C)O2)cc1` (stereo not shown), the “hERG current change (%, negative = inhibition) at 1uM” value is listed as -2.88%.

With `CC(C)(C)C(=O)N1CCN(c2ccc(NC(=O)c3ccc4c(c3)OCCO4)cc2)CC1`, the “hERG current change (%, negative = inhibition) at 1uM” value stood at 14.9%.

Take `O=C1/C(=C/c2ccco2)N=C(N2CCCCC2)N1c1ccccc1`: the “hERG current change (%, negative = inhibition) at 1uM” value is on record as 9.07%.

Consider `COc1ccc(NC(=O)COc2ccc(CNCCCN3CCOCC3)cc2OC)cc1.Cl`, for which the “hERG current change (%, negative = inhibition) at 1uM” value was found to be 2.09%.

As for `C=CCN(c1ccccc1OC)S(=O)(=O)c1cccc(C(=O)Nc2nnc(C3CC3)s2)c1`, the “hERG current change (%, negative = inhibition) at 1uM” value is reported as 5.37%.

As for `CN(C)C1(CNC(=O)c2ccc(NS(=O)(=O)c3ccc(Cl)c(Cl)c3)cc2)CCCCC1`, the “hERG current change (%, negative = inhibition) at 1uM” value is reported as -50.9%.

In the case of `N=C1c2ccccc2CN1c1cccc([N+](=O)[O-])c1`, the “hERG current change (%, negative = inhibition) at 1uM” value was found to be 3.5%.

In the case of `CCNC(=O)CN(c1ccc(C)cc1)S(=O)(=O)c1ccc(SC)cc1`, the “hERG current change (%, negative = inhibition) at 1uM” value was -2.13%.

Take `COCc1cc(=O)[nH]c2cc(NC(=O)C3CC3)c(C)cc12`: the “hERG current change (%, negative = inhibition) at 1uM” value stood at 14.1%.

In the case of `Nc1cncc(C(=O)O)c1` [26671297], the “hERG current change (%, negative = inhibition) at 1uM” value came out at 8.02%.

As to `Cc1nc(C(=O)Nc2cc(F)cc(Cl)c2)sc1C1(C)CC(c2ccccc2)=NO1` (stereo not shown), the “hERG current change (%, negative = inhibition) at 1uM” value stood at 6.67%.

For `Fc1cccc(C2CCCCN2Cc2nc(C3CC3)no2)c1` (stereo not shown), the “hERG current change (%, negative = inhibition) at 1uM” value came out at 8.25%.

Regarding `Cc1nnc(SCC(=O)Nc2sccc2C(N)=O)s1`, the “hERG current change (%, negative = inhibition) at 1uM” value worked out at 0.842%.

Take `O=C(CSc1nnc(Nc2ccccc2F)s1)NC(=O)CN1CCCC1=O`: the “hERG current change (%, negative = inhibition) at 1uM” value is reported as 6.01%.

Take `OC(CN1CCc2ccccc2C1)c1ccccc1` (stereo not shown): the “hERG current change (%, negative = inhibition) at 1uM” value is 3.23%.

As to `COc1ccc2c(CC#N)c[nH]c2c1`, the “hERG current change (%, negative = inhibition) at 1uM” value was 9.42%.

Take `COc1ccc2c(c1OC)C(=O)N1N=C(c3ccc(F)cc3)CC21` (stereo not shown): the “hERG current change (%, negative = inhibition) at 1uM” value worked out at 2.15%.

With `COc1ccc(/C=C2/C(=O)C(C)(C(C)C)CCC2C)cc1` (stereo not shown), the “hERG current change (%, negative = inhibition) at 1uM” value was found to be 5.61%.

In the case of `COc1ccc(-c2cc(-c3ccc(Cl)cc3)n[nH]2)c(O)c1`, the “hERG current change (%, negative = inhibition) at 1uM” value is reported as 17.1%.

For the compound `c1ccc2c(c1)Cc1cc3ccccc3nc1-2`, the “hERG current change (%, negative = inhibition) at 1uM” value was determined as 12.6%.

On to `C=CCNC(=O)c1ccc2c(=O)n(CCCN3CCCC3=O)c(=S)[nH]c2c1`, for which the “hERG current change (%, negative = inhibition) at 1uM” value is listed as 4.18%.

`CCOC(=O)c1ccc2c(c1)N(CC#N)C(=O)C(C)(C)O2`: the “hERG current change (%, negative = inhibition) at 1uM” value is recorded as -1.45%.

With `COc1cc(C2C3=C(Nc4nc(N)[nH]c(=O)c42)c2ccccc2C3=O)ccc1O` (stereo not shown), the “hERG current change (%, negative = inhibition) at 1uM” value worked out at 12%.

On to `COC(=O)C(C)N(C(=O)c1cccc2ccccc12)c1c(C)cccc1C` (stereo not shown), for which the “hERG current change (%, negative = inhibition) at 1uM” value came to 2.83%.

As to `Cc1ccc(NC(=S)N2CCCN(Cc3ccc(F)cc3)C2)c(C)c1`, the “hERG current change (%, negative = inhibition) at 1uM” value was -1.42%.

In the case of `Nc1ccc2nc(-c3ccccc3)cnc2c1`, the “hERG current change (%, negative = inhibition) at 1uM” value was determined as 6.27%.

`Cc1cccc(NC(=O)c2ccc(OCc3c(C)noc3C)cc2)n1`: the “hERG current change (%, negative = inhibition) at 1uM” value was -1.53%.

Consider `CCOC(=O)C1CCN(C(=O)CSc2ccccc2)CC1`, for which the “hERG current change (%, negative = inhibition) at 1uM” value is on record as -5.23%.

As for `Cc1cccc(/N=C/c2sc3ccccc3c2O)n1`, the “hERG current change (%, negative = inhibition) at 1uM” value is given as 11.4%.

As to `CCOc1cc(/C=C2/NC(=O)N(CC(=O)OC)C2=O)ccc1OC`, the “hERG current change (%, negative = inhibition) at 1uM” value is given as 6.2%.

With `COCc1cc(=O)[nH]c2cc(NC(=O)C(C)(C)CCl)c(C)cc12`, the “hERG current change (%, negative = inhibition) at 1uM” value is given as 12.4%.

Regarding `Cc1ccc(C(c2sc3ncnn3c2O)N2CCC(C)CC2)cc1` (stereo not shown), the “hERG current change (%, negative = inhibition) at 1uM” value came to 10.4%.

With `COCCCNC(=O)CN(Cc1ccccc1)S(=O)(=O)c1ccccc1`, the “hERG current change (%, negative = inhibition) at 1uM” value is 7.33%.

For `Cc1c(NC(=O)C(C)N2CC(C)OC(C)C2)c(=O)n(-c2ccccc2)n1C` (stereo not shown), the “hERG current change (%, negative = inhibition) at 1uM” value came to 18.9%.

Take `COc1ccc(-n2nnc3c(SCC(=O)c4ccccc4)ncnc32)cc1`: the “hERG current change (%, negative = inhibition) at 1uM” value is given as 5.34%.

Turning to `CCOC(=O)N1CCN(Cc2nc3cc(NC(=O)CC)ccc3n2CC)CC1`, the “hERG current change (%, negative = inhibition) at 1uM” value stood at 14.9%.

As for `COCCCNCCOCCOc1ccc(C)cc1[N+](=O)[O-].O=C(O)C(=O)O`, the “hERG current change (%, negative = inhibition) at 1uM” value was -14.5%.

As for `Cc1nc2cnccc2n1C`, the “hERG current change (%, negative = inhibition) at 1uM” value is on record as 13.5%.

Consider `CSc1nc2n(n1)C(c1cccs1)C1=C(CCCC1=O)N2` (stereo not shown), for which the “hERG current change (%, negative = inhibition) at 1uM” value was found to be 6.41%.

Consider `CC(=O)Nc1ccc2c(c1)nc(CN1CCCC1)n2C`, for which the “hERG current change (%, negative = inhibition) at 1uM” value is recorded as -2.87%.

As for `COc1cccc(NC(=O)CSc2nc3ccccc3nc2N2CCOCC2)c1`, the “hERG current change (%, negative = inhibition) at 1uM” value is 8.17%.

In the case of `CC(=O)C1C(c2ccc(O)cc2)NC(=O)NC1(O)C(F)(F)F` (stereo not shown), the “hERG current change (%, negative = inhibition) at 1uM” value is listed as 4.52%.

For the compound `COc1ccccc1N1CCN(C(=O)c2ccc3nc[nH]c3c2)CC1`, the “hERG current change (%, negative = inhibition) at 1uM” value is recorded as 9.21%.

With `Cc1cc(SCC(=O)OCC(=O)N(CCC#N)c2ccccc2)nc2ccccc12`, the “hERG current change (%, negative = inhibition) at 1uM” value is on record as -13%.

As to `CN(C(=O)COc1cc(=O)n(C)c2ccccc12)c1ccc(Cl)cc1`, the “hERG current change (%, negative = inhibition) at 1uM” value is -23.6%.

For `CCOC(=O)c1sc2nc(CN3CCCCC3)nc(Cl)c2c1C`, the “hERG current change (%, negative = inhibition) at 1uM” value amounted to 3.19%.

Turning to `CCc1ccc(C2C(C(C)=O)=C(C(=O)OC)Nc3nnnn32)cc1` (stereo not shown), the “hERG current change (%, negative = inhibition) at 1uM” value is recorded as 6.79%.

Turning to `CCOC(=O)CC1C(=O)NCCN1Cc1ccc(OC)c(OC)c1` (stereo not shown), the “hERG current change (%, negative = inhibition) at 1uM” value is 14.2%.

Turning to `O=[N+]([O-])c1cccc2ccc(/C=C/c3ccc(F)cc3)nc12`, the “hERG current change (%, negative = inhibition) at 1uM” value is on record as -1.42%.

In the case of `COc1cc(/C=N/n2c(-c3ccccc3)n[nH]c2=S)ccc1O`, the “hERG current change (%, negative = inhibition) at 1uM” value amounted to 9.71%.

For the compound `COC(=O)c1ccc(/C=C/c2c(-c3ccc(OC)cc3)oc3ccccc23)cc1`, the “hERG current change (%, negative = inhibition) at 1uM” value came out at 8.54%.
